# Measured values as given in the supplement of paper PMC8728848.
# The list shows a part of the results.
# B1: DrGRIFIN (Danio rerio), Q6DGJ1 (protein)
# chain: MTLRFEASCPDGLCPGWSVILKGETPPEASKFEINFLCDRDDRVAFHFNPRFTESDIICNSYMANRWGQEERCNHFPLGVEEPFQIEIYSDNDHFHVYIDKAKVMQYKHRVEDLKTITKLQVVNDVKISSLEITKKLFY
# Tests used:
# Assay in all cases: glycan array binding signal (z-score within array); higher = stronger binding
# Settings in all cases: glycan notation: IUPAC condensed, linker removed
# [1] = molecular target: Gal(b1-4)GlcNAc(b1-3)Gal(b1-4)GlcNAc(b1-6)[Gal(b1-3)]GalNAc
# Procedure, shortened: (§1)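 Glycan array binding is given as a within-array Z-score, which can be read as non-binding when negative. The arrays, 3228 of them, came from the Consortium for Functional Glycomics database and were retained only where the protein sequence was available. Z-scores were averaged across arrays of the same protein sequence at different concentrations or buffers and across linkers.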
# [2] = molecular target: Gal(b1-4)GlcNAc(b1-3)Gal(b1-4)[Fuc(a1-3)]GlcNAc(b1-3)Gal(b1-4)[Fuc(a1-3)]GlcNAc
# Procedure, shortened: as §1
# [3] = molecular target: Gal(b1-4)GlcNAc(b1-3)GalNAc
# Procedure, shortened: as §1
# [4] = molecular target: Gal(b1-4)GlcNAc(b1-3)[Fuc(a1-3)GlcNAc(b1-6)]Gal(b1-4)Glc
# Procedure, shortened: as §1
# [5] = molecular target: Gal(b1-4)GlcNAc(b1-3)[Gal(b1-4)GlcNAc(b1-6)]Gal(b1-4)GlcNAc
# Procedure, shortened: as §1
# [6] = molecular target: Gal(b1-4)GlcNAc(b1-3)[GlcNAc(b1-6)]Gal(b1-4)GlcNAc
# Procedure, shortened: as §1
# [7] = molecular target: Gal(b1-4)GlcNAc(b1-6)Gal(b1-4)GlcNAc
# Procedure, shortened: as §1
# [8] = molecular target: Gal(b1-4)GlcNAc(b1-6)GalNAc
# Procedure, shortened: as §1
# [9] = molecular target: Gal(b1-4)GlcNAc(b1-6)[Gal(b1-3)]GalNAc
# Procedure, shortened: as §1
# [10] = molecular target: Gal(b1-4)GlcNAc(b1-6)[Gal(b1-4)GlcNAc(b1-3)]GalNAc
# Procedure, shortened: as §1
# [11] = molecular target: Gal(b1-4)GlcNAc6P
# Procedure, shortened: as §1
# [12] = molecular target: Gal(b1-6)Gal
# Procedure, shortened: as §1
# [13] = molecular target: Gal3S(b1-3)GalNAc
# Procedure, shortened: as §1
# [14] = molecular target: Gal3S(b1-3)GlcNAc
# Procedure, shortened: as §1
# [15] = molecular target: Gal3S(b1-3)[Fuc(a1-4)]GlcNAc
# Procedure, shortened: as §1
# [16] = molecular target: Gal3S(b1-4)Glc
# Procedure, shortened: as §1
# [17] = molecular target: Gal3S(b1-4)Glc6S
# Procedure, shortened: as §1
# [18] = molecular target: Gal3S(b1-4)GlcNAc
# Procedure, shortened: as §1
# [19] = molecular target: Gal3S(b1-4)[Fuc(a1-3)]Glc6S
# Procedure, shortened: as §1
# [20] = molecular target: Gal3S(b1-4)[Fuc(a1-3)]GlcNAc
# Procedure, shortened: as §1
# [21] = molecular target: Gal3S(b1-4)[Fuc(a1-3)]GlcNAc6S
# Procedure, shortened: as §1
# [22] = molecular target: Gal3S4S(b1-4)GlcNAc
# Procedure, shortened: as §1
# [23] = molecular target: Gal3S6S(b1-4)GlcNAc
# Procedure, shortened: as §1
# [24] = molecular target: Gal3S6S(b1-4)GlcNAc6S
# Procedure, shortened: as §1
# [25] = molecular target: Gal4S(b1-4)GlcNAc
# Procedure, shortened: as §1
# [26] = molecular target: Gal4S6S(b1-4)GlcNAc
# Procedure, shortened: as §1
# [27] = molecular target: Gal6P(b1-4)GlcNAc
# Procedure, shortened: as §1
# [28] = molecular target: Gal6S(b1-3)GlcNAc
# Procedure, shortened: as §1
# [29] = molecular target: Gal6S(b1-3)GlcNAc6S
# Procedure, shortened: as §1
# [30] = molecular target: Gal6S(b1-4)Glc
# Procedure, shortened: as §1
# [31] = molecular target: Gal6S(b1-4)Glc6S
# Procedure, shortened: as §1
# [32] = molecular target: Gal6S(b1-4)GlcNAc
# Procedure, shortened: as §1
# [33] = molecular target: Gal6S(b1-4)GlcNAc6S
# Procedure, shortened: as §1
# [34] = molecular target: GalNAc(a1-3)Gal
# Procedure, shortened: as §1
# [35] = molecular target: GalNAc(a1-3)GalNAc
# Procedure, shortened: as §1
# [36] = molecular target: GalNAc(a1-3)GalNAc(b1-3)Gal(a1-4)Gal(b1-4)Glc
# Procedure, shortened: as §1
# [37] = molecular target: GalNAc(a1-3)GalNAc(b1-3)Gal(a1-4)Gal(b1-4)GlcNAc
# Procedure, shortened: as §1
# [38] = molecular target: GalNAc(b1-3)Gal
# Procedure, shortened: as §1
# [39] = molecular target: GalNAc(b1-3)Gal(a1-4)Gal(b1-4)GlcNAc
# Procedure, shortened: as §1
# [40] = molecular target: GalNAc(b1-3)Gal(a1-4)Gal(b1-4)GlcNAc(b1-3)Gal(b1-4)Glc
# Procedure, shortened: as §1
# [41] = molecular target: GalNAc(b1-3)Gal(a1-6)Gal(b1-4)Glc
# Procedure, shortened: as §1
# [42] = molecular target: GalNAc(b1-3)GalNAc
# Procedure, shortened: as §1
# [43] = molecular target: GalNAc(b1-3)GlcNAc
# Procedure, shortened: as §1
# [44] = molecular target: GalNAc(b1-4)Gal(b1-4)Glc
# Procedure, shortened: as §1
# [45] = molecular target: GalNAc(b1-4)GlcNAc
# Procedure, shortened: as §1
binder,measurement,setting,value
B1,glycan array binding signal (z-score),[1],-0.176
same,glycan array binding signal (z-score),[2],-0.179
same,glycan array binding signal (z-score),[3],-0.164
same,glycan array binding signal (z-score),[4],-0.215
same,glycan array binding signal (z-score),[5],-0.124
same,glycan array binding signal (z-score),[6],-0.153
same,glycan array binding signal (z-score),[7],-0.225
same,glycan array binding signal (z-score),[8],-0.141
same,glycan array binding signal (z-score),[9],-0.203
same,glycan array binding signal (z-score),[10],-0.173
same,glycan array binding signal (z-score),[11],-0.174
same,glycan array binding signal (z-score),[12],-0.101
same,glycan array binding signal (z-score),[13],-0.161
same,glycan array binding signal (z-score),[14],-0.181
same,glycan array binding signal (z-score),[15],-0.169
same,glycan array binding signal (z-score),[16],-0.182
same,glycan array binding signal (z-score),[17],-0.179
same,glycan array binding signal (z-score),[18],-0.147
same,glycan array binding signal (z-score),[19],-0.151
same,glycan array binding signal (z-score),[20],-0.092
same,glycan array binding signal (z-score),[21],-0.16
same,glycan array binding signal (z-score),[22],-0.193
same,glycan array binding signal (z-score),[23],-0.193
same,glycan array binding signal (z-score),[24],-0.097
same,glycan array binding signal (z-score),[25],-0.226
same,glycan array binding signal (z-score),[26],-0.167
same,glycan array binding signal (z-score),[27],-0.218
same,glycan array binding signal (z-score),[28],-0.095
same,glycan array binding signal (z-score),[29],-0.151
same,glycan array binding signal (z-score),[30],-0.18
same,glycan array binding signal (z-score),[31],-0.192
same,glycan array binding signal (z-score),[32],-0.181
same,glycan array binding signal (z-score),[33],-0.178
same,glycan array binding signal (z-score),[34],-0.153
same,glycan array binding signal (z-score),[35],-0.177
same,glycan array binding signal (z-score),[36],-0.214
same,glycan array binding signal (z-score),[37],-0.182
same,glycan array binding signal (z-score),[38],-0.026
same,glycan array binding signal (z-score),[39],-0.132
same,glycan array binding signal (z-score),[40],-0.12
same,glycan array binding signal (z-score),[41],-0.212
same,glycan array binding signal (z-score),[42],-0.175
same,glycan array binding signal (z-score),[43],-0.192
same,glycan array binding signal (z-score),[44],-0.187
same,glycan array binding signal (z-score),[45],-0.123
